These are yes or no findings as the source states them, for the method shown. Some results given as binding are weak or reduced against the parent protein; the word gives no strength.
Assays:
[1] = biological target: ApoE derived from human plasma lipoprotein (human) (UniProt P02649); test: ELISA on coated human plasma
[2] = biological target: ApoE derived from human plasma lipoprotein (human) (UniProt P02649); test: ELISA on coated human plasma (diluted 100x)
[3] = biological target: human ApoE in brain tissue of 5XFAD APP transgenic mice expressing different human ApoE isoforms (human) (UniProt P02649); test: staining of 5XFAD brain tissue, biotinylated antibody
[4] = biological target: ApoE derived from human plasma lipoprotein (human) (UniProt P02649); test: ELISA on coated human plasma (pooled E4+ plasma, 1:100), anti-mouse IgG-HRP, OD450
[5] = biological target: T1, recombinant alipidated human ApoE2 (human, UniProt P02649 19-317); test: direct ELISA on coated recombinant alipidated ApoE (0.5 ug/ml); direct ELISA, plate coated with recombinant alipidated ApoE2 (0.5 µg/ml), anti-mouse IgG-HRP detection
T1 construct: mature; full length recombinant protein made in E. coli or bought

Sequences of proteins named here, by UniProt entry; tags and fusion partners are left off. A change or cut given only in a name is not applied to a line headed by its entry. A line that says so, or that is headed by a name, gives the form on record, which may keep a tag or linker. Residues count along the entry.
human ApoE in brain tissue of 5XFAD APP transgenic mice expressing different human ApoE isoforms (P02649, residues 19-317): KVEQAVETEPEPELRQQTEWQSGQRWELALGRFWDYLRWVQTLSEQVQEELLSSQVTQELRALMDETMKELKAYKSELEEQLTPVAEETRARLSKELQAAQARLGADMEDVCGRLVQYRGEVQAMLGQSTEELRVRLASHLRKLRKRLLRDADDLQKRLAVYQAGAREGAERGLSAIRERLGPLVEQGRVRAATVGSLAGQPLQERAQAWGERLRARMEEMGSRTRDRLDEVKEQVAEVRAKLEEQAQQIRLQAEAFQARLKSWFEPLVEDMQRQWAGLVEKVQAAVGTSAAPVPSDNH
ApoE derived from human plasma lipoprotein (P02649, form named): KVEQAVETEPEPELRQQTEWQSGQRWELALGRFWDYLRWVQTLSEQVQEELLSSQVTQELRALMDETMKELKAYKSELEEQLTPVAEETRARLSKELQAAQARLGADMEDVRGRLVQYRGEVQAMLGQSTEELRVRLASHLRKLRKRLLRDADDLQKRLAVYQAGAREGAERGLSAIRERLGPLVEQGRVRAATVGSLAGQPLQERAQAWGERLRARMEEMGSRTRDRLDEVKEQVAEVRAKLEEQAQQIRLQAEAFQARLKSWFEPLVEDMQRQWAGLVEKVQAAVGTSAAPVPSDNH
recombinant alipidated human ApoE2 (P02649, form named): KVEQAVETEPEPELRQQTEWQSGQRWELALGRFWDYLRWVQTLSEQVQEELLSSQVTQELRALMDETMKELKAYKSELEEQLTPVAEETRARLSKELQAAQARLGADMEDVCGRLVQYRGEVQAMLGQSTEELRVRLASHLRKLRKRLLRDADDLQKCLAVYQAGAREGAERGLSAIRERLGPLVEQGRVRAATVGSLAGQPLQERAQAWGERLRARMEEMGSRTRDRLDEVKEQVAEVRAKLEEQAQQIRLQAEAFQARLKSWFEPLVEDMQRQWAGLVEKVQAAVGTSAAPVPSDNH

B1: HJ154 (antibody, V domains shown)
VH: QVQLQQPGTEFVMSGASVMLSCKASGYIFTNYWLHWVKQRPGHGLEWIGEIDPSDSYSICNDNFKGKSTLTVDKSSSTAYMQLSSLTSEDSAVYYCAGSLGRVGLAYWGQGTLVTVST
VL: QIVLTQSPAIMSASPGEKVTMSCSASSSVSNMYWYQQKPGSSPKSWIYRTSNLASGVPARFSGSGSGTSYSLTISNMEAEDAATYYCQHYQNYPLTFGAGTKLELKR
notes: murine monoclonal antibody from hybridoma; also called HJ154B (biotinylated)
binding [1]: binds | binding [2]: binds | binding [3]: binds | binding [4]: binds

B2: HJ153 (antibody, V domains shown)
VH: QVQLQQPGAELVKPGASVKLSCKASGYTFTSYWMHWVKQRPGRGLEWIGEIDPSDGFTYNNQNFKDKSTLTVDRSSGTAYLQLSSLTSEDSAVYYCAGSLGRIGLAYWGHGTLVTVSA
VL: QIVLTQSPAIMSASPGEKVTISCSASSSVTYMYWYQQKPGASPKSWIYRTSNLASGVPARFSGSGSGTSYSLTISSMEAEDAATYYCQQFQSYPLTFGAGTKLELKR
notes: murine monoclonal antibody from hybridoma; also called HJ153B (biotinylated)
binding [3]: binds

B3: HJ155 (antibody, V domains shown)
VH: RVQLQQSGPGLVKPGASVKISCKASGYTFTDYYINWVRQRPGQGLEWIGWIFPGSGITYYNEKFKGKATLTVDRSSSTAYMLLSSLTSEDSAVYFCARYAYGSPFAYWGQGTLVTVSA
VL: DVLMTQTPLSLPVSLGDQASISCRSSQSIVHSNGNTYLEWYLQKPGQSPKLLIYKVSNRFSGVPDRFSGSGSGTDFTLKISRVEAEDLGVYYCFQGSHVPYTFGGGTKLEIKR
notes: murine monoclonal antibody from hybridoma; also called HJ155B (biotinylated)
binding [5]: no binding (tested: >1000 nM)

From patent US20250145697A1 (WASHINGTON UNIVERSITY, published 2025)
